Measurements reported in US20230218776A1, “ANTI-NTB-A ANTIBODIES AND RELATED COMPOSITIONS AND METHODS” (SEAGEN INC., priority 2015, published 2023).

Tests used:
[1] = system: WSU-DLCL2 non-Hodgkin lymphoma cells; assay: Subcutaneous non-Hodgkin lymphoma xenograft, WSU-DLCL2 in SCID mice; assay type: in vivo; conditions: n=8
Procedure: SCID (C.B-17/Sz-Prkdc^scid) mice were implanted with 5 million WSU-DLCL2 non-Hodgkin lymphoma cells per animal subcutaneously. When mean tumor volume reached 100 mm^3, n=8 mice per treatment group were given a single intraperitoneal injection of h20F3ec-1910(2) PBD ADC or control hIgGec-1910(2) PBD ADC. PBD ADC dose levels examined were 100 ug/kg, 50 ug/kg, and 25 ug/kg. Individual mice were sacrificed when subcutaneous WSU-DLCL2 tumor volume reached 1,000 mm^3.

[2] = system: HNT-34 acute myeloid leukemia cells; assay: Subcutaneous AML xenograft, HNT-34 in SCID mice; assay type: in vivo; conditions: 37 μg/kg single ip dose; n=10
Procedure: SCID (C.B-17/Sz-Prkdc^scid) mice were implanted with 5 million HNT-34 acute myeloid leukemia cells per animal subcutaneously. When mean tumor volume reached 100 mm^3, n=10 mice per treatment group were given a single intraperitoneal injection of h20F3ec-1910(2) PBD ADC or non-binding control hIgGec-1910(2) PBD ADC. PBD ADC dose levels examined were 333 μg/kg, 111 Ig/kg, and 37 μg/kg. Individual mice were sacrificed when subcutaneous HNT-34 tumor volume reached 1,000 mm^3. […] The hIgGec-1910(2) control PBD ADC produced 0/10 complete responses at 333 g/kg.
SCID (C.B-17/Sz-Prkdc^scid) mice were implanted with 5 million HNT-34 acute myeloid leukemia cells per animal subcutaneously. When mean tumor volume reached 100 mm^3, n=10 mice per treatment group were given a single intraperitoneal injection of either anti-NTB-A ADCs h20F3-vcMMAE(4), h20F3-Auristatin2(8), or non-binding control ADCs hIgG-vcMMAE(4) and hIgG-Auristatin2(8). ADC dose levels examined were 3.0 mg/kg, and 1.0 mg/kg. Individual mice were sacrificed when subcutaneous HNT-34 tumor volume reached 1,000 mm^3. […] The h20F3-vcMMAE(4) ADC produced durable complete responses in 4/10 or 9/10 mice at 1.0 mg/kg or 3.0 mg/kg dose levels, respectively. The h20F3-Auristatin2(8) ADC produced 3/10 or 9/10 durable complete responses at 1.0 mg/kg or 3.0 mg/kg dose levels, respectively.

Normal human T cells = assay: ADCC, flow cytometry-based assay with NK effector cells; assay type: cell-based; conditions: NK effector to target 10:1, 4 hours
Procedure: A flow cytometry-based assay was used to measure ADCC activity on normal human T cells. PKH2-labeled normal human T cell targets were bound with titrations of antibody (0.1 ng/mL-10 μg/mL) and then incubated with effector NK cells at an effector to target ratio of 10:1 for 4 hours at 37° C., 5% CO2. Viability was determined by 7-AAD incorporation as measured on the FACsCalibur flow cytometer (BD BioSciences, San Jose, Calif.).

EJM = assay: ADC cytotoxicity, Cell Titer Glo, 96 hours; assay type: cell-based; conditions: EJM (9800 NTB-A receptors/cell)
Procedure: (§1) Humanized antibodies (HDLD) were tested as PBD and auristatin antibody drug conjugates. The antimitotic agent monomethyl auristatin E (MMAE) was conjugated to anti-NTB-A mAbs via a cathepsin-cleavable valine-citrulline (vc) linker. A second auristatin, Auristatin-2 was conjugated to anti-NTB-A mAbs via a peptide linker. For the PBD conjugates, the drug-linker SGD-1910 was conjugated to the anti-NTBA antibody via a thiol group of a cysteine residue introduced at position 239 of the IgG1 chain of the antibody (numbering according to the EU Index) and the average drug load was about 2 drugs per antibody. Antibodies with cysteine at the 239 position carry the designation ec. Preparation was as described in WO2011/130613 using the anti-NTBA antibodies described herein. The ADCs were serially diluted 3-fold in media to produce a 10 point dose curve (1,000 ng/mL-0.05081 ng/mL) and applied to multiple myeloma cells cultured in 96-well assay plates. The cell lines were treated with anti-NTB-A ADCs in quadruplicate and incubated for 96 hours at 37° C., 5% CO2. Cells were assayed for viability using the Cell Titer Glo luminescent cytotoxicity assay (Promega), and data collected using an EnVision plate reader (Perkin Elmer). Dose effect curves and IC50 values were calculated using GraphPad Prism software.

LP-1 = assay: ADC cytotoxicity, Cell Titer Glo, 96 hours; assay type: cell-based; conditions: LP-1 (0 NTB-A receptors/cell)
Procedure: as §1

HNT-34 = assay: ADC cytotoxicity, Cell Titer Glo, 96 hours; assay type: cell-based; conditions: HNT-34 (57300 NTB-A receptors/cell)
Procedure: as §1

MM.1R = assay: ADC cytotoxicity, Cell Titer Glo, 96 hours; assay type: cell-based; conditions: MM.1R (21000 NTB-A receptors/cell)
Procedure: as §1

CA46 = assay: ADC cytotoxicity, Cell Titer Glo, 96 hours; assay type: cell-based; conditions: CA46 (15,000 NTB-A receptors/cell)
Procedure: as §1

HEL92.1.7 = assay: ADC cytotoxicity, Cell Titer Glo, 96 hours; assay type: cell-based; conditions: HEL92.1.7 (10200 NTB-A receptors/cell)
Procedure: as §1

U-266 = assay: ADC cytotoxicity, Cell Titer Glo, 96 hours; assay type: cell-based; conditions: U-266 (18300 NTB-A receptors/cell)
Procedure: as §1

Ramos = assay: ADC cytotoxicity, Cell Titer Glo, 96 hours; assay type: cell-based; conditions: Ramos (24500 NTB-A receptors/cell)
Procedure: as §1

MM.1S = assay: ADC cytotoxicity, Cell Titer Glo, 96 hours; assay type: cell-based; conditions: MM.1S (14800 NTB-A receptors/cell)
Procedure: as §1

B1: h20F3ec-1910(2) (conjugate)
heavy: QIQLVQSGSELKKPGASVKVSCKASGYTFTNYGMNWVRQAPGQDLKWMGWINTYSGEPRYADDFKGRFVFSLDKSVNTAYLQISSLKAEDTAVYYCARDYGRWYFDVWGQGTTVTVSS[sequence of human IgG1 constant region with changes omitted]
light: QIVLSQSPATLSLSPGERATMSCRASSSVSHMHWYQQKPGQAPRPWIYATSNLASGVPARFSGSGSGTDYTLTISSLEPEDFAVYYCQQWSSTPRTFGGGTKVEIKRTVAAPSVFIFPPSDEQLKSGTASVVCLLNNFYPREAKVQWKVDNALQSGNSQESVTEQDSKDSTYSLSSTLTLSKADYEKHKVYACEVTHQGLSSPVTKSFNRGEC
B1 was tested, and the “tumor growth delay relative to untreated mice” value ([1]; 25 ug/kg and 50 ug/kg single ip dose) was “measurable tumor growth delays”, the “durable complete responses” value ([1]; 100 ug/kg single ip dose) was 2/8 and the durable complete responses [2] was 2/10. For the same molecule, the tumor delay [2] was “strong tumor delay”, the “ADCC Maximum % Specific Cell Lysis” value (Normal human T cells) was 19 ± 1.0% and the IC50 (EJM) was over 1000 ng/mL. It also gave an IC50 (LP-1) of over 1000 ng/mL, an IC50 (HNT-34) of 0.5 ng/mL and an IC50 (MM.1R) of 1 ng/mL. It also gave an IC50 (CA46) of 0.9 ng/mL, an IC50 (HEL92.1.7) of 2 ng/mL and an IC50 (U-266) of 8 ng/mL. It also gave an IC50 (Ramos) of 0.8 ng/mL and an IC50 (MM.1S) of 1 ng/mL.
